In ChEMBL document CHEMBL1157539, “Thousands of chemical starting points for antimalarial lead identification” (Nature, 2010):
In all, about 13,000 compounds were measured (“IFI”: median about 4, highest 2% from about 17 on). The list shows a part of the results.

Experiment: GSK_TCMDC: Inhibition Frequency Index (IFI). The number of non-kinase HTS assays where a compound showed > 50 % inhibition, expressed as a percentage of the number of such assays in which the compound was tested (-0 is zero)
Assay type: functional

| SMILES | IFI [%] |
| --- | --- |
| c1ccc(CCNCc2cccc(-c3ccc(CNc4ccc5ncccc5c4)cc3)c2)cc1 | 12.6 |
| CON=C1CCC(Cn2ccnc2)(c2ccc(Cl)cc2Cl)CC1 (stereo not drawn) | 3.45 |
| O=C(/C=C/c1ccc(Cl)c(Cl)c1)NC1CCC(CN2CCC(c3c[nH]c4ccncc34)CC2)CC1 (stereo not drawn) | 1.42 |
| c1ccc(COc2ccc(Nc3ncnc4cnc(-c5ccc(CNc6cccnc6)o5)cc34)cc2)cc1 | 2.86 |
| CN1CCCc2ccc(NC(=O)C=Cc3ccc(-c4ccc(F)cc4F)o3)cc2C1 | 8.33 |
| C[C@@H](Oc1cc(-n2cnc3ccc(OCC4CCN(S(C)(=O)=O)CC4)cc32)sc1C(N)=O)c1ccccc1C(F)(F)F | 9.29 |
| CCCN1CCN(CCNc2c3ccccc3nc3ccccc23)CC1 | 5.15 |
| Cc1n[nH]c2cc(Nc3ccnc(Nc4cccc(CN5CCOCC5)c4)n3)ccc12 | 3.33 |
| COc1cc2nccc(Nc3ccc(Oc4ccccc4)cc3)c2cc1OC | 2.19 |
| CCc1cc(OC)ccc1C1CCN(CCCCNC(=O)c2ccc(NC(=O)c3ccc(Cl)cc3)cc2)CC1 | 3.73 |
| CCC(C)NC(=O)CN1CN(c2ccccc2)C2(CCN(C(=O)c3ccc(C(C)(C)C)cc3)CC2)C1=O (stereo not drawn) | 3.33 |
| COc1ccc2ccccc2c1CCCCN1CCN(CC(c2ccc(F)cc2)N2CCC2)CC1 (stereo not drawn) | 18.4 |
| CN1CCN(CCCN(Cc2ccc(-c3cccc(CNC4CCCC4)c3)cc2)C(=O)Nc2ccccc2)CC1 | 3.57 |
| O=S(=O)(NC1CCN(c2ccnc3cc(Cl)ccc23)C1)c1ccc(F)cc1 (stereo not drawn) | -0 |
| CCC(C)(C)C1CCc2[nH]c3ccccc3c(=O)c2C1 (stereo not drawn) | 1.45 |
| O=C(Nc1ccc(C(=O)Oc2ccc(-c3ccccc3)cc2)cc1)N[C@@H](Cc1ccc(O)cc1)C(=O)NC1CCN(Cc2ccc(O)cc2)C1 (stereo partly drawn) | 8.78 |
| OCC1CCN(Cc2ccc(-c3cccc(-c4nc5ccccc5[nH]4)c3)cc2)CC1 | 0.97 |
| N=C(N)CCN(Cc1ccc(Cl)cc1)c1ccc(Cl)cc1 | 4.14 |
| Nc1ncnc2nc(-c3ccc(F)cc3)cc(-c3ccc(NC(=O)c4ccccc4)cc3)c12 | 4.17 |
| CCCCc1ccc(-c2ccc(-c3c(C)[nH]c(C)c(Br)c3=O)cn2)cc1 | 0 |

| SMILES | IFI [%] |
| --- | --- |
| Clc1ccc(Cn2nc(Br)nc2Br)c(Cl)c1 | 3.57 |
| COc1cc(-c2cc(-c3ccc(S(C)(=O)=O)cc3)cnc2N)ccc1O | 4.84 |
| O=C(Nc1ccc(Cn2nc(Cl)c(N3CCNCC3)cc2=O)cc1)Nc1ccc(-c2ccccc2)cc1 | 4.83 |
| O=C(Nc1ccc(N2CCNCC2)nc1)c1oc(-c2ccccc2)nc1C(F)(F)F | 10 |
| O=C(NCCN1CCCC1)N1CCCN(c2ncnc3cc(-c4ccc(Cl)cc4)sc23)CC1 | 7.69 |
| O=c1[nH]c2c(cc1CNC1CCCCC1)c(-c1ccc(F)cc1)nn2-c1ccccc1 | 3.85 |
| O=C(NC1CCN(Cc2ccccc2)CC1)c1ccc(-c2nc3cc(Cl)c(F)cc3[nH]2)s1 | 3.6 |
| CN(c1ccc(NC(=O)c2cccc(F)c2)cc1)C1CCCN(Cc2cccc(O)c2)C1 (stereo not drawn) | 15.4 |
| Cc1cccc2nc(-c3cccc(-c4ccc(NC(=O)COC(C)C)cc4)c3)[nH]c12 | 2.61 |
| O=C(Nc1cccc(F)c1)NC1CCN(c2ccnc3cc(Cl)ccc23)CC1 | 3.23 |
| CCOC(=O)CCc1cc(F)c(F)c(OC[C@H](O)CNC(C)(C)C(O)c2ccc3ccccc3c2)c1 (stereo partly drawn) | 7.76 |
| CC(C)c1cc(Oc2c(I)cc(CCNCc3ccccc3)cc2I)ccc1O | 15.3 |
| Fc1ccc2[nH]c(-c3cccc(-c4cccc(CN5CCN(c6ccncc6)CC5)c4)c3)nc2c1 | 13.6 |
| CCCN1CCC(c2c[nH]c3ccc(NC(=O)Nc4cccc(Cl)c4Cl)cc23)CC1 | 4.32 |
| CN1CCc2cc(O)c(NS(=O)(=O)c3ccc(-c4ccc(Cl)cc4)cc3)cc2CC1 | 4.38 |
| CC(C)N1CCN(C(CN2CCN(CCCOc3ccc4nonc4c3)CC2)c2ccc(F)cc2)CC1 (stereo not drawn) | 2.8 |
| CCN(CC)CCN(Cc1ccc(-c2ccc(C(F)(F)F)cc2)cc1)C(=O)Cn1c(CCc2ccc(F)c(F)c2F)nc(=O)c2ccccc21 | 7.64 |
| Cc1cc(CNCCCCCNCc2ccc(Cl)cc2)ccc1O | 0.75 |
| CN1CCN(CCCN(Cc2cccc(-c3ccc(CNCc4ccc5c(c4)OCO5)cc3)c2)C(=O)Nc2ccccc2)CC1 | 9.56 |
| COc1cc(COc2c(C)nc(N)nc2N)cc(OC)c1OC | 0 |

| SMILES | IFI [%] |
| --- | --- |
| Cc1ccc2nc(C)cc(N/N=C/c3cccc([N+](=O)[O-])c3)c2c1 | 2.13 |
| CCN(CC)CC(O)c1cc(-c2ccc(OC)cc2)nc2cc(Cl)ccc12 (stereo not drawn) | 2.94 |
| Nc1ncc(-c2ccc(NC(=O)Nc3cc(C(F)(F)F)ccc3F)cc2)c(N)n1 | 0 |
| O=C(NCCN1CCOCC1)c1ccc(-c2ccc(CNCCCc3ccccc3)cc2)nc1 | -0 |
| O=C(Nc1cccc(-c2cccc(-c3nc4cc(C(F)(F)F)ccc4[nH]3)c2)c1)c1ccoc1 | 6.19 |
| N#Cc1ccc2c(c1)CCN(CCC1CCC(NC(=O)c3cc4cccc(Cl)c4[nH]3)CC1)CC2 (stereo not drawn) | 10.5 |
| CCN(CC)CCNc1ccc(Nc2ccnc3cc4ccccc4cc23)cc1 | 4.41 |
| FC(F)(F)c1ccc2[nH]c(-c3ccc(-c4ccc(CNCCc5ccncc5)cc4)cc3)nc2c1 | 12 |
| Cc1[nH]c(C)c(-c2ccc(-c3cccc(OC(F)(F)F)c3)nc2)c(=O)c1Cl | 4.55 |
| CC1(C)NC(N)=NC(=N)N1OCCCOc1ccc(N)cc1 | 7.8 |
| COc1ccc(CN2CCCN(Cc3cccc(NC(=O)c4ccc(-c5ccccc5)cc4)c3)CC2)cc1 | 8.11 |
| CCOc1ccc2[nH]c(C)cc(=NN=Cc3ccncc3)c2c1 | 0.75 |
| CC(C)C(=O)ONC1=NC(=N)N(OCCCOc2cc(Cl)c(Cl)cc2Cl)C(C)(C)N1 | 2.8 |
| O=C(Nc1ccc(CN2CCCCC2)cc1)c1ccc(COc2ccc([N+](=O)[O-])cc2)o1 | 3.88 |
| Cn1c(NC(=O)C2CCC(CNC(=O)c3ccc(O)c(-c4ccc(Cl)c(Cl)c4)c3)CC2)nc2ccccc21 (stereo not drawn) | 2.26 |
| Cc1ccc(-c2nnc(Nc3ccc(OCC(N)=O)cc3)c3ccccc23)cc1S(=O)(=O)NCC1CCCO1 (stereo not drawn) | 0.67 |
| COc1ccc2[nH]ccc(=NN=CC=Cc3ccccc3)c2c1 | 5.76 |
| CCOc1ccc(NC(=O)c2ccc(NCCCN3CC(C)CC(C)C3)c([N+](=O)[O-])c2)cc1 (stereo not drawn) | 2.24 |
